{"source": "patent US20210300999A1", "binders": {"B1": {"name": "COV2-2196 (antibody, V domains shown)", "VH": "QMQLVQSGPEVKKPGTSVKVSCKASGFTFMSSAVQWVRQARGQRLEWIGWIVIGSGNTNYAQKFQERVTITRDMSTSTAYMELSSLRSEDTAVYYCAAPYCSSISCNDGFDIWGQGTMVTVSS", "VL": "[here about 100 residues without letters]GWTFGQGTKVEIK"}, "B2": {"name": "COV2-2838 (antibody, V domains shown)", "VH": "B1 VH", "VL": "[here about 100 residues without letters]GWTFGQGTKVEIK"}}, "molecular_target": "SARS-CoV Spike trimer (Table A) (SARS-CoV)", "test": "ELISA, purified IgG", "settings": "remark: other sources report otherwise"}
{"binder": "B1", "values": [{"measurement": "ELISA OD 450 nm", "result": 0.09, "unit": "OD 450 nm"}]}
{"binder": "B2", "values": [{"measurement": "ELISA OD 450 nm", "result": 0.21, "unit": "OD 450 nm"}]}
